# Positions count from the first letter of the chain named. Names and notes keep the numbering of the source.
# B1: Mini Gs162: mini Gs161 with A249D (protein)
# chain: MGHHHHHHANKKIEKQLQKDKQVYRATHRLLLLGAGESGKSTIVKQMRILHGGGGGETKFQVDKVNFHMFDVGGQRDERRKWIQCFNDVTAIIFVVDSSSYNMVIREDNQTNRLQEALNLFKSIWNNRWLRTISVILFLNKQDLLAEKVLAGKSKIEDYFPEFARYTTPEDATPEPGEDPRVTRAKYFIRDEFLRISTASGDGRHYCYPHFTCAVDTENIRRVFNDCRDIIQRMHLRQYELL
# modifications: MINI GS162
# notes: mini Gs161 with A249D
# B2: Mini Gs164: A249D and switch III deletion (protein)
# chain: MGHHHHHHANKKIEKQLQKDKQVYRATHRLLLLGAGESGKSTIVKQMRILHGGGGGETKFQVDKVNFHMFDVGGQRDERRKWIQCFNDVTAIIFVVDSSSYNRLQEALNLFKSIWNNRWLRTISVILFLNKQDLLAEKVLAGKSKIEDYFPEFARYTTPEDATPEPGEDPRVTRAKYFIRDEFLRISTASGDGRHYCYPHFTCAVDTENIRRVFNDCRDIIQRMHLRQYELL
# modifications: MINI GS164
# notes: A249D and switch III deletion
# B3: Mini Gs340: mini Gs199 with I372A (protein)
# chain: MGHHHHHHANKKIEKQLQKDKQVYRATHRLLLLGADNSGKSTIVKQMRILHGGGGGGGGTSGIFETKFQVDKVNFHMFDVGGQRDERRKWIQCFNDVTAIIFVVDSSDYNRLQEALNDFKSIWNNRWLRTISVILFLNKQDLLAEKVLAGKSKIEDYFPEFARYTTPEDATPEPGEDPRVTRAKYFIRDEFLRISTASGDGRHYCYPHFTCAVDTENARRVFNDCRDIIQRMHLRQYELL
# modifications: MINI GS340
# notes: mini Gs199 with I372A
# B4: Mini Gs345: mini Gs199 with I372A-V375I; detergent stabilised construct (protein)
# chain: B3 chain with V221I
# modifications: MINI GS345
# notes: mini Gs199 with I372A-V375I; detergent stabilised construct
# B5: Mini Gs393 (protein)
# chain: MGHHHHHHENLYFQGIEKQLQKDKQVYRATHRLLLLGADNSGKSTIVKQMRILHGGSGGSGGTSGIFETKFQVDKVNFHMFDVGGQRDERRKWIQCFNDVTAIIFVVDSSDYNRLQEALNDFKSIWNNRWLRTISVILFLNKQDLLAEKVLAGKSKIEDYFPEFARYTTPEDATPEPGEDPRVTRAKYFIRDEFLRISTASGDGRHYCYPHFTCAVDTENARRIFNDCRDIIQRMHLRQYELL
# modifications: N-terminal His tag, TEV site; MINI GS393
# B6: Mini Gs165: A249D-S252D-SIII (protein)
# chain: B2 chain with S100D
# modifications: MINI GS165
# notes: A249D-S252D-SIII
# B7: Mini Gs169: A249D-S252D-SIII- (mutation list truncated in table) (protein)
# chain: B2 chain with S100D, L110D
# modifications: MINI GS169
# B8: Mini Gs183: G49D-E50N-A249D-S252D-SIII-L272D (protein)
# chain: B2 chain with G36D, E37N, S100D, L110D
# modifications: MINI GS183
# notes: G49D-E50N-A249D-S252D-SIII-L272D
# B9: Mini Gs199: mini Gs, Gly8 linker, switch III deleted, G49D E50N A249D S252D L272D (protein)
# chain: B3 chain with A218I
# modifications: MINI GS199
# notes: mini Gs, Gly8 linker, switch III deleted, G49D E50N A249D S252D L272D
# B10: Mini Gs254: mini Gs199 with M60A (protein)
# chain: B3 chain with M47A, A218I
# modifications: MINI GS254
# notes: mini Gs199 with M60A
# B11: Mini Gs350: mini Gs199 with L63Y (protein)
# chain: B3 chain with L50Y, A218I
# modifications: MINI GS350
# notes: mini Gs199 with L63Y
# B12: Mini GS303: mini Gs199 with V375I (protein)
# chain: B3 chain with A218I, V221I
# modifications: MINI GS303
# notes: mini Gs199 with V375I
# B13: Mini Gs352: mini Gs199 with L63Y-I372A (protein)
# chain: B3 chain with L50Y
# modifications: MINI GS352
# notes: mini Gs199 with L63Y-I372A
# How the values were obtained:
# [1] = target: T1, β1AR-WT (Meleagris gallopavo, UniProt P07700, C116L); test: Saturation binding assay, ^3H-DHA binding to β1AR-WT; parameters: species or system turkey; conditions: insect cell membranes, 20° C., read-out: dissociation constant (Kd) of ^3H-DHA binding to β1AR-WT
# Method: FIG. 2. Saturation binding data for β1AR constructs. […] Data represent mean±SEM of three independent experiments. Curves shown are from a representative experiment performed in duplicate.
# Insect cells expressing β1AR were resuspended in 1 ml of assay buffer (20 mM HEPES, pH 7.5, 100 mM NaCl), supplemented with Complete EDTA-free protease inhibitors (Roche). Cells were broken by 10 passages through a bent 26 G needle. Cell debris was removed by centrifugation (3000 g for 5 mins at 4° C.). The supernatant was diluted and 2×0.96 ml aliquots taken for each sample. Alprenolol (120 μl) was added to the negative sample (1 mM final concentration) and assay buffer (120 μl) was added to the positive sample. Samples were aliquoted (12×108 μl) into a PCR plate. [^3H]-dihydroalprenolol (12 μl) was added to each well (to give final concentrations in the range: 2.5 nM-2.56 μM). Samples were mixed and incubated at 20° C. for 2 h. Samples (2×50 μl duplicates) were vacuum filtered through 96-well glass fibre filter plates (Merck Millipore), pre-soaked with PEI (0.1%). Each well was washed with assay buffer (3×200 μl). Filters were dried, punched into scintillation vials and 4 ml Ultima Gold scintillant (Perkin Elmer) was added. Radioactivity was quantified by scintillation counting (1 min per sample) using a Tri-Carb counter (Perkin Elmer). Data for negative samples were subtracted from positive samples. […]
# [2] = target: T1, β1AR-WT; assay type: binding, turkey; conditions: relative to uncoupled 40 nM, membranes, 20° C.
# [3] = target: T1, β1AR-WT; test: Thermostability measurement of β1AR-WT complexes (^3H-norepinephrine); assay type: biochemical, turkey; conditions: for apparent Tm of β1AR-WT complex in DDM: dodecylmaltoside 0.1%, ^3H-norepinephrine 200 nM, 30 min heating, uncoupled β1AR-WT 25.9° C.
# Method: A new parental construct (mini Gs161), which contained a modified N-terminus and linker region (see Table 2), was used to combine mutations. […]. The agonist ^3H-norepinephrine (^3H-NE) was used in the Tm assay, however due to the high background signal associated with this ligand, a maximum concentration of 200 nM could be used in the assay. […] Therefore, Tm values quoted for uncoupled β1AR-WT are under non-saturating agonist conditions, but β1AR-WT complexes, which have higher agonist affinity, are under agonist saturating conditions.
# Insect cells expressing wild type β1AR-WT were resuspended in 1 ml of assay buffer (25 mM HEPES, pH 7.5, 400 mM NaCl, 1 mM MgCl2, 1 mM ascorbate, 0.1% BSA, 0.004% bacitracin), supplemented with Complete EDTA-free protease inhibitors (Roche). Cells were broken by 10 passages through a bent 26 G needle. Cell debris was removed by centrifugation (3000 g for 5 mins at 4° C.). The supernatant was diluted and 2×0.78 ml aliquots taken for each sample. Norepinephrine (120 μl) was added to the negative sample (200 μM final concentration) and assay buffer (120 μl) was added to the positive sample. Binding partner (120 μl) was added to both samples (25 μM final concentration). ^3H-norepinephrine (120 μl), prepared in buffer containing 1 U/ml apyrase (Sigma-Aldrich), was added to both samples (200 nM final concentration). Samples were mixed and incubated at 4° C. for 1 h. Detergent (60 μl) was added to both samples (final concentration: DDM=0.1%; DM=0.13%; OG=0.8%). Samples were mixed and incubated on ice for 1 h. Insoluble material was removed by centrifugation (17000 g for 5 mins at 4° C.). The supernatant was aliquoted (9×120 μl) into 0.2 ml PCR tubes. Each sample was heated to the desired temperature (between 4 and 50° C.) for exactly 30 minutes, followed by quenching on ice for 30 minutes. […] Plates were centrifuged (1800 rpm for 5 mins at 4° C.). The filtrate was transferred to Isoplates (Perkin Elmer), and 200 μl Optiphase Supermix scintillant (Perkin Elmer) was added to each well. Radioactivity was quantified by scintillation counting (1 min per well) using a MicroBeta counter (Perkin Elmer). Data for negative samples were subtracted from positive samples. Data were plotted graphically and apparent melting temperature (Tm) values derived from sigmoidal dose-response (variable slope) analysis.
molecule,measurement,setting,value
"CCCc1ccccc1OCC(O)CNC(C)C (stereo not shown) [^3H-DHA, ^3H-dihydroalprenolol]",Kd,[1],5 ± 0.6 nM
Gs: non-lipidated Gs (Gαsβ1γ2) heterotrimer [reference compound],shift of isoprenaline Ki of β1AR-WT in response to binding partner,[2],2.4 fold
B1,apparent Tm of β1AR-WT complex in DDM,[3],25.1 (n = 1) ° C.
same,apparent Tm of β1AR-WT complex in DDM,[3]; listed as mini Gs162,25.1 °C
B2,apparent Tm of β1AR-WT complex in DDM,[3],28.6 (n = 1) ° C.
same,apparent Tm of β1AR-WT complex in DDM,[3]; listed as mini Gs164,28.6 °C
B3,apparent Tm of β1AR-WT complex in DDM,[3],34.0 (n = 1) ° C.
same,apparent Tm of β1AR-WT complex in DDM,[3]; listed as I372A,34.00 °C
B4,apparent Tm of complex higher than that of the Nb80 complex by,[3]; DDM,3.0 °C
same,apparent Tm of complex lower than that of the Gs-Nb35 complex by,[3]; DDM,0.8 °C
same,apparent Tm of β1AR-WT complex in DDM,[3],35.0 (n = 1) ° C.
same,apparent Tm of β1AR-WT complex in DDM,[3]; listed as I372A-V375I,35.0 °C
B5,apparent Tm of complex higher than that of the Nb80 complex by,[3]; DDM,2.1 °C
same,apparent Tm of complex higher than uncoupled β1AR-WT by,[3]; DDM,8.2 °C
same,apparent Tm of complex lower than that of the Gs-Nb35 complex by,[3]; DDM,1.7 °C
same,apparent Tm of complex higher than that of the Nb80 complex by,[3]; DM,1.9 °C
same,apparent Tm of complex higher than uncoupled β1AR-WT by,[3]; DM,10.1 °C
same,apparent Tm of complex lower than that of the Gs-Nb35 complex by,[3]; DM,0.6 °C
same,apparent Tm of complex higher than that of the Gs-Nb35 complex by,[3]; NG,5.7 °C
same,apparent Tm of complex higher than that of the Nb80 complex by,[3]; NG,8.0 °C
same,apparent Tm of complex higher than that of the Gs-Nb35 complex by,[3]; OG,6.1 °C
same,apparent Tm of complex higher than that of the Nb80 complex by,[3]; OG,5.4 °C
same,apparent Tm of β1AR-WT complex in DM,"[3]; decylmaltoside, uncoupled β1AR-WT 20.4° C.",30.5 °C
same,apparent Tm of β1AR-WT complex in DDM,[3],34.1 °C
same,apparent Tm of β1AR-WT complex in NG,"[3]; nonylglucoside, uncoupled β1AR-WT did not survive solubilisation",24.7 °C
same,apparent Tm of β1AR-WT complex in OG,"[3]; octylglucoside, uncoupled β1AR-WT did not survive solubilisation",19.7 °C
B6,apparent Tm of β1AR-WT complex in DDM,[3],28.5 ± 0.2 (n = 2) ° C.
B7,apparent Tm of β1AR-WT complex in DDM,[3],28.8 (n = 1) ° C.
B8,apparent Tm of β1AR-WT complex in DDM,[3],28.7 ± 0.2 (n = 4) ° C.
B9,apparent Tm of β1AR-WT complex in DDM,[3],29.2 ± 0.2 (n = 17) ° C.
B10,apparent Tm of β1AR-WT complex in DDM,[3],31.5 ± 0.3 (n = 5) ° C.
B11,apparent Tm of β1AR-WT complex in DDM,[3],30.9 ± 0.4 (n = 2) ° C.
B12,apparent Tm of β1AR-WT complex in DDM,[3],31.5 ± 0.6 (n = 3) ° C.
B13,apparent Tm of β1AR-WT complex in DDM,[3],34.5 (n = 1) ° C.
